Assay results taken from PubChem BioAssay AID894 (National Center for Advancing Translational Sciences (NCATS), 2007).
Values joined by “and” are separate entries in the source; they are usually repeats but may differ in a detail not shown here. Identical values can stand only once. In all, about 150,000 compounds went through this assay and about 6,500 (4.3%) were called active. The inconclusive results got no clear call from the source; some entries with a clear call stand among them for comparison. Calls follow the shape of the dose curve; as a rule, active = well fitted inhibition curve with a large enough effect (not every such curve was filed as active); inconclusive = small, poorly fitted or top-dose-only effect, or another doubt; inactive = no such curve, though single readings can be large or run the other way. A potency beside an inconclusive call is a rough fit, not a confirmed value.

target: 15-hydroxyprostaglandin dehydrogenase [NAD(+)] (Homo sapiens) (UniProt P15428); assay: qHTS Assay for Inhibitors of HPGD (15-Hydroxyprostaglandin Dehydrogenase); conditions: purified HPGD, NADH fluorescence kinetic, PGE2 substrate; activity change, negative = inhibition: hits give low values
In short: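 NADH formation kinetics: reaction with 30 uM PGE2 and 1 mM NAD+ (final), 20 nM enzyme, Tris-HCl pH 8 with Tween 20, after 15 min compound preincubation at room temperature. Fluorescence change, last versus first of five reads.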
% is scaled to controls: 0 for no effect and ±100 for the full control effect; potency is read from the fitted curve at half-maximal effect; tags tell the direction and shape of the fitted curve.

Sequence of UniProt P15428 (P15428 whole entry, looked up): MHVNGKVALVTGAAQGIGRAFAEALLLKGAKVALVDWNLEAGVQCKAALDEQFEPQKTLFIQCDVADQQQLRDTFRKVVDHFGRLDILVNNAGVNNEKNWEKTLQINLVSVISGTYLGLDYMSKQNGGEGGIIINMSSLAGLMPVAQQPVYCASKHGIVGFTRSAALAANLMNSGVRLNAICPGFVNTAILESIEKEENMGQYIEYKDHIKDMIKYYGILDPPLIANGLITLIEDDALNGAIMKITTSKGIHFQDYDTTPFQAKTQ

| SMILES | activity change, negative = inhibition | Potency |
| --- | --- | --- |
| CN1/C(=C\C=C(/C#N)C(=O)Nc2ccccc2F)C(C)(C)c2ccccc21 | inactive: -7.96% |  |
| O=C(COc1ccc2c(c1)C(=O)CC1(CCCCC1)O2)NCc1ccccc1 |  | inconclusive: 31.6 µM [inhibitor, partial curve] |
| Cc1cc(-c2ccccc2)c(C#N)c(=S)[nH]1 |  | active: 14.1 µM |
| COC(=O)c1cc(Cl)c(NC(=O)c2ccc(F)cc2)cc1OC |  | inconclusive: 25.1 µM [inhibitor, partial curve] |
| CCCCCCCCCCCCC/C=C\[C@@H](O)[C@@H](N)CO | inactive: 0.969% |  |
| Cc1ccc(-n2nnnc2SCc2ccccn2)cc1C | inactive: -5.36% |  |
| COC(=O)c1ccc(C(=O)OC)c(NC(=O)CCc2ccc(C)o2)c1 |  | inconclusive: 25.1 µM [inhibitor, partial curve] |
| C=CCn1c(-c2ccc(Cl)cc2)ccc(C#N)c1=O |  | inconclusive: 35.5 µM [inhibitor, single point] |
| Cc1ccc2nc(-c3cccc(NC(=O)c4ccc5c(c4)OCCO5)c3)oc2c1 |  | inconclusive: 35.5 µM [inhibitor, single point] |
| CCOC(=O)c1c(NC(=O)c2ccco2)sc2c1CCCC2 |  | inconclusive: 17.8 µM [inhibitor, partial curve] |
| CCOC(=O)c1sc(NC(=O)c2ccc(S(=O)(=O)N(CC)CC)cc2)nc1C |  | inconclusive: 35.5 µM [inhibitor, partial curve] |
| CCn1cc(C(=O)O)c(=O)c2cc(F)c(N3CCNC(C)C3)c(F)c21 (centres undefined) |  | inconclusive: 28.2 µM [inhibitor, partial curve] and inconclusive: 31.6 µM [inhibitor, partial curve] |
| O=S(=O)(Cc1ccccc1)N1CCCCC1 |  | active: 31.6 µM |
| O=C(Nc1cc(C(F)(F)F)ccc1-n1cncn1)c1ccc(-c2ccccc2)cc1 |  | inconclusive: 35.5 µM [inhibitor, partial curve] |
| O=C(c1cccc(F)c1)N1CCC[C@@]2(CCN(Cc3ccncc3)C2)C1 |  | inconclusive: 17.8 µM [inhibitor, partial curve] |
| CC1(C)Cc2c(C#N)c(N3CCN(C(=O)c4ccccc4)CC3)nc(-c3ccco3)c2CS1 |  | inconclusive: 10 µM [inhibitor, partial curve] |
| CS(=O)(=O)N1CCN(c2ccccc2NC(=O)Cc2ccccc2)CC1 | inactive: -2.15% |  |
| Clc1ccc(-n2ncc3c(NCCCn4ccnc4)ncnc32)cc1 |  | inconclusive: 22.4 µM [inhibitor, partial curve] |
| Cc1ccc2nc(-c3cccc(N)c3)[nH]c2c1 |  | inconclusive: 25.1 µM [inhibitor, partial curve] |
| N=c1c2c(-c3ccccc3)c(-c3ccccc3)n(Cc3ccccc3)c2ncn1CCCn1ccnc1 | inactive: -16.2% |  |
| Cc1ccc(CNC(=O)C2CCN(S(=O)(=O)c3cccs3)CC2)o1 | inactive: -24.6% |  |
| Cc1ccc(C)c(OCC(=O)Nc2ccc(S(=O)(=O)Nc3ccccn3)cc2)c1 |  | inconclusive: 31.6 µM [inhibitor, single point] |
| NC(=O)c1c(C(F)(F)F)cc(-c2ccccc2)nc1NCCO |  | inconclusive: 31.6 µM [inhibitor, partial curve] |

| SMILES | activity change, negative = inhibition | Potency |
| --- | --- | --- |
| C/C=C(/C)C(=O)OC(C)(C)[C@@H]1Cc2c(ccc3ccc(=O)oc23)O1 |  | inconclusive: 39.8 µM [inhibitor, single point] |
| O=C(NCCc1csc(-c2cccnc2)n1)c1ccc(Br)o1 |  | inconclusive: 22.4 µM [inhibitor, single point] |
| CC1CN(C(=O)c2cnn3c(C(F)F)cc(-c4ccccc4)nc23)CC(C)O1 (centres undefined) |  | inconclusive: 15.8 µM [inhibitor, partial curve] |
| O=C1CN(C(=O)CSc2nc3ccccc3c(=O)n2Cc2ccc(F)cc2)c2ccccc2N1 |  | inconclusive: 12.6 µM [inhibitor, partial curve] |
| COc1ccc2c(c1)c(=O)cc(-c1ccccc1)n2C |  | inconclusive: 28.2 µM [inhibitor, partial curve] |
| Cc1ccc(C2NC(=O)NC(O)(C(F)(F)F)C2C(=O)c2ccccc2)o1 (centres undefined) | inactive: -9.23% |  |
| CCn1c(SCC(=O)c2ccc(Cl)s2)nnc1-c1cccs1 |  | inconclusive: 15.8 µM [inhibitor, partial curve] |
| O=C(O)CCc1ccc(-c2ccc(Cl)cc2)o1 |  | inconclusive: 25.1 µM [inhibitor, single point] |
| COc1ccc(-c2ccc(-c3noc(C(C)C)n3)c(OC)n2)cc1 |  | inconclusive: 31.6 µM [inhibitor, partial curve] |
| CN(C)CN1CSC(=S)N(CN(C)C)C1 |  | active: 3.16 µM |
| CCN(CC)S(=O)(=O)c1cccc(-c2nnc(SCCCC(=O)c3ccc(F)cc3)o2)c1 |  | inconclusive: 6.31 µM [inhibitor, partial curve] |
| CCOc1ccc(-n2c(C)nc3cc(C(=O)NCc4ccco4)ccc32)cc1 |  | active: 8.91 µM |
| COc1ccc(OC)c(-n2c(N)c(C(=O)NCC3CCCO3)c3nc4ccccc4nc32)c1 (centres undefined) |  | inconclusive: 22.4 µM [inhibitor, partial curve] |
| Cc1ccc(Cc2cnc(NC(=O)c3ccco3)s2)cc1 | inactive: -6.37% |  |
| COc1ccc(OC)c(S(=O)(=O)N2CCC(C(=O)N3CCc4ccccc4C3)CC2)c1 |  | active: 22.4 µM |
| Cc1nc(NC(C)c2ccccc2)c2oc3ccccc3c2n1 (centres undefined) | inactive: -26.3% |  |
| Cc1ccccc1C(=O)NC(=S)NCC(=O)c1ccccc1 |  | inconclusive: 7.08 µM [inhibitor, single point] |
| CC(Oc1ccc(Cl)cc1Cl)C(=O)Nn1cnnc1 (centres undefined) | inactive: 4.41% |  |
| O=C(NCCCCCCNC(=O)NCc1ccco1)NCc1ccco1 | inactive: -9.22% |  |
| CCOC(=O)CN(c1ccccn1)S(=O)(=O)c1ccccc1 |  | inconclusive: 31.6 µM [inhibitor, partial curve] |
| Cc1ccc(Cn2c3ccccc3c3cn[nH]c(=O)c32)cc1 | inactive: -17.5% |  |
| Cc1cccc(-c2cccc(-c3cc(=O)oc4cc5c(cc34)OCO5)c2)c1 |  | inconclusive: 2 µM [inhibitor, partial curve] |
| C/C(=N/NC(=O)c1ccncc1)c1cc2ccc(O)cc2oc1=O |  | inconclusive: 28.2 µM [inhibitor, single point] |

| SMILES | activity change, negative = inhibition | Potency |
| --- | --- | --- |
| CCOc1ccc(N2C(=O)CC(n3nc(C)cc3C)C2=O)cc1 (centres undefined) | inactive: -2.96% |  |
| COc1ncc2nc(-c3cccc(C#N)c3)c(=O)n(CCC#N)c2n1 |  | inconclusive: 28.2 µM [inhibitor, partial curve] |
| O=[N+]([O-])c1cc(S(=O)(=O)c2ccc(N3CCCCC3)c([N+](=O)[O-])c2)ccc1N1CCCCC1 | inactive: -13.6% |  |
| CN(c1ccc(C(=O)Nc2ccccc2Sc2ccccc2)cc1)S(C)(=O)=O |  | inconclusive: 35.5 µM [inhibitor, single point] |
| C=C(C)CSc1nnc(-c2ccc(OC)cc2)n1N |  | inconclusive: 22.4 µM [inhibitor, partial curve] |
| COc1cccc(C2C=C(Nc3ccccc3)C(=O)N2c2ccccc2)c1 (centres undefined) |  | inconclusive: 20 µM [inhibitor, partial curve] |
| COc1ccc(C2=CC3=C(Br)C(=O)C(C)(OC(=O)c4ccc(Cl)nc4)C(=O)C3=CO2)cc1 (centres undefined) |  | inconclusive: 35.5 µM [inhibitor, partial curve] |
| O=C(NCCOc1ccccc1Cl)C(=O)Nc1ccccc1 | inactive: -2.3% |  |
| C=CCNc1oc(-c2ccc(OCC)cc2)nc1C#N |  | inconclusive: 25.1 µM [inhibitor, partial curve] |
| C[N+]1(C)CCC(=C2c3ccccc3CC(=O)c3sccc32)CC1 |  | inconclusive: 35.5 µM [inhibitor, single point] |
| O=C(Cc1cccs1)N1CCC(c2nc3c(nnn3Cc3ccccc3Cl)c(=O)[nH]2)CC1 |  | active: 15.8 µM |
| CSc1oc(-c2ccccc2)nc1S(=O)(=O)c1ccc(C)cc1 |  | inconclusive: 31.6 µM [inhibitor, single point] |
| CC1(C)CC(=O)c2c(oc3cc4c(cc23)OCO4)C1 |  | active: 2.51 µM |
| O=C(Cn1ncn2c(cc3ccccc32)c1=O)NCc1ccco1 |  | inconclusive: 28.2 µM [inhibitor, partial curve] |
| Cc1nc2c(=O)n(C)c(=O)[nH]c2n1Cc1ccccc1 |  | inconclusive: 22.4 µM [inhibitor, partial curve, poor fit] |
| CCCC(=O)N(c1ccc(OCC)cc1)C1C=CS(=O)(=O)C1 (centres undefined) | inactive: 8.87% |  |
| COc1cc(C=Nc2ccccc2C(=O)Nc2ccccc2)cc(OC)c1OC |  | inconclusive: 22.4 µM [inhibitor, partial curve] |
| Cn1c(SCC(=O)OC2CCCCC2)nnc1-c1ccc(S(=O)(=O)N2CCCC2)cc1 |  | inconclusive: 25.1 µM [inhibitor, partial curve] |
| CN(CCOc1ccccc1)c1ccc(S(=O)(=O)N2CCCCC2)cn1 |  | inconclusive: 22.4 µM [inhibitor, partial curve] |
| COC(=O)c1cn(CC(=O)NC2CCCCCC2)c2ccccc12 | inactive: -1.18% |  |
| CCOC(=O)c1ccc(NC(=O)Nc2ccc(OC)c(OC)c2)cc1 | inactive: -4.64% |  |
| O=C(Nc1cccc(Oc2ccc3c(c2)C(=O)NC3=O)c1)c1cccs1 |  | active: 14.1 µM |
| CC(C)OC(=O)CC(=O)CSc1nc(-c2ccc(F)cc2)cc(-c2ccccc2)c1C#N |  | inconclusive: 28.2 µM [inhibitor, single point] |
